According to PubChem BioAssay AID463173 (ICCB-Longwood Screening Facility, Harvard Medical School, 2010):
The campaign covered roughly 52,000 compounds. About 4,300 (8.3%) were called active. Rule as the data show it: active = survival mostly below about 52% (no sharp cut-off); inactive = mostly above about 56%. The list shows a part of the results.

Tested on: DeltatarO mutant
Assay: S. aureus survival, RN4220 and DeltatarO strains – OD600, teichoic acid synthesis inhibitors, primary screen (AID 463173)
Details: S. aureus RN4220 wild type/DeltatarO growth, OD600, 18 h, stronger effect = lower value, screened at 18.75 µg/mL (by protocol)

| SMILES | survival |
| --- | --- |
| COc1ccc(/C=C/c2nc(C#N)c(N3CCCCCC3)o2)cc1OC | active: 45% |
| O=C(Cn1cc(S(=O)(=O)c2ccc(Cl)cc2)c(=O)c2ccccc21)Nc1ccc2c(c1)OCO2 | inactive: 60% |
| Cc1ccc(C)c(NC(=O)CSc2ncc3c(n2)-c2ccccc2N(Cc2ccccc2C)S3(=O)=O)c1 | inactive: 95% |
| Cc1ccc(C)c(S(=O)(=O)Nc2ccc3c(c2)CCCN3C(=O)c2cccs2)c1 | active: 47% |
| COc1ccc(CNS(=O)(=O)c2ccc3c(c2)NC(=O)C(C)C(=O)N3)cc1 (stereo unspecified) | inactive: 88% |
| Cc1nnc(N2CCC(C(=O)N3CCCCC3)CC2)c2nn(-c3ccccc3)c(C)c12 | inactive: 125% |
| COc1ccc(C)cc1NS(=O)(=O)c1ccc(-c2cnc(C3CC3)o2)cc1 | inactive: 78% |
| Cc1ccc(C)c(Nc2ncnc3c2cnn3-c2ccc(F)cc2)c1 | active: -1% |
| O=S(=O)(Nc1ccc(F)cc1F)c1ccc(Br)s1 | active: 22% |
| COc1ccc(OCc2ccc(-c3nc(C#N)c(N4CCC(C(N)=O)CC4)o3)o2)cc1 | inactive: 72% |
| Cc1ccc(CNC(=O)c2nnn(Cc3ccc(F)cc3)c2N)cc1 | inactive: 91% |
| COc1ccc(CCNC(=O)c2cnc3sc(N4CCOCC4)nn3c2=O)cc1OC | inactive: 82% |
| CCn1c2c(c(=O)n3ncc(C(=O)Nc4ccc(OC(F)(F)F)cc4)c13)CN(Cc1ccc(OC)cc1)CC2 | inactive: 94% |
| COc1ccc(CCNC(=O)c2c[nH]n3c(=O)c(Cc4ccccc4Cl)c(C)nc23)cc1OC | active: 32% |
| O=C(Nc1cc(-c2nc3cc(Cl)ccc3o2)ccc1Cl)c1cccc2ccccc12 | active: 44% |
| O=C(c1ccc(Nc2nc3ccccc3n3nnnc23)cc1)N1CCN(c2ccc(F)cc2)CC1 | inactive: 53% |
| COc1ccc(C2c3c(n(C)c4ccccc34)C(=O)N2CC(=O)Nc2ccccc2Cl)cc1 (stereo unspecified) | inactive: 102% |
| COc1cc(NC(=O)c2cc3nc(-c4ccc(C)cc4)cc(C(F)(F)F)n3n2)cc(OC)c1OC | active: 41% |
| CCOC(=O)C1=C(N)OC2=C(C(=O)CC(C)(C)C2)C1c1ccccc1 (stereo unspecified) | inactive: 73% |

| SMILES | survival |
| --- | --- |
| Cc1ccc(C(=O)N2CCc3cc(CNC(=O)c4ccnn4C)ccc32)cc1 | inactive: 91% |
| Cc1ccc(NS(=O)(=O)c2ccc3c(c2)NC(=O)CCS3)cc1F | inactive: 67% |
| Cc1cn(C)c(CC(=O)N2CCN(c3ccc(F)cc3)CC2)c1C(=O)O | inactive: 128% |
| O=C(NCc1ccc2c(c1)CCN2C(=O)c1ccccc1)c1ccc(Br)o1 | inactive: 84% |
| CC(C)COC(=O)Nc1ccc2c(c1)OCO2 | inactive: 62% |
| COc1ccccc1N1CCN(c2cc(C)nc3c(-c4ccc(Cl)cc4)c(C)nn23)CC1 | inactive: 87% |
| COCCCNc1nc2c(c(=O)n(C)c(=O)n2C)n1Cc1ccccc1 | inactive: 92% |
| COCCOC(=O)C1=C(C)N=C2SCCC(=O)N2C1c1ccc(OCc2ccccc2)c(OC)c1 (stereo unspecified) | inactive: 58% |
| COc1cccc(-c2[nH]c3c(c2-c2c(-n4cccc4)n(C)c(=O)[nH]c2=O)c(=O)[nH]c(=O)n3C)c1 | active: 63% |
| COCCNC(=O)CCSc1nc(-c2ccc3c(c2)OCO3)cc(C(F)(F)F)n1 | inactive: 66% |
| CC(C)c1nc2ccc(C(=O)NCCCN3CCN(c4ccc(F)cc4)CC3)cc2o1 | inactive: 74% |
| CCC1CN(C(=O)N2CCC(C(=O)NCc3ccco3)CC2)c2cc(C)ccc2O1 (stereo unspecified) | inactive: 79% |
| COc1cccc(-n2c(-c3ccc(C)cc3)cc3c2CC(C)(C)CC3=O)c1 | active: 18% |
| CCCCOc1ccc(CNC(=O)c2cnc3sc(N4CCC(C)CC4)nn3c2=O)cc1 | inactive: 79% |
| Cc1ccc2c(c1)CC(C)N2S(=O)(=O)c1nnc(NC(=O)CC(C)C)s1 (stereo unspecified) | inactive: 59% |
| Cc1cc(C)c2c(CC(=O)Nc3c(C(=O)c4ccc(F)cc4)oc4ccccc34)coc2c1 | inactive: 90% |
| COc1ccc(OC)c(NC(=O)CCc2c(C)nc3c(c(C)nn3C(C)(C)C)c2C)c1 | inactive: 83% |
| CC(C)c1ccc2occ(CC(=O)Nc3cccc(C(F)(F)F)c3)c2c1 | active: 0% |
| Cc1sc2nc(C)n(NC(N)=O)c(=O)c2c1C | inactive: 97% |

| SMILES | survival |
| --- | --- |
| CCN(C(=O)Cn1cc(C(=O)c2ccc(F)cc2)c(=O)c2ccc(C)nc21)c1cccc(C)c1 | inactive: 71% |
| CC1CCCCN1c1nc(-c2ccc(C(C)(C)C)cc2)nc2ccccc12 (stereo unspecified) | active: 3% |
| COc1cc(NC(=O)Cn2c(=O)nc(-c3ccccc3F)c3cc(Cl)ccc32)cc(OC)c1 | inactive: 102% |
| Cc1ccc(C)c(N2CCN(C(=O)Cn3c(C)c4cnn(-c5ccccc5)c(=O)c4c3C)CC2)c1 | inactive: 105% |
| COC(=O)c1ccccc1NC(=O)Cn1nc(C(F)(F)F)c2c1CCCC2 | active: 5% |
| CCOc1ccc(C(=O)N2CCC(c3ccncc3)CC2)cc1 | inactive: 94% |
| COc1ccc(CC(=O)Nc2nnc3n2CCS3)cc1 | inactive: 79% |
| O=C(CC1Oc2ccccc2NC1=O)NCc1ccc(F)cc1 (stereo unspecified) | inactive: 118% |
| Cc1ccc(CSc2nc3ccsc3c(=O)n2CCC(C)C)cc1 | active: -5% |
| O=c1oc2ccc(F)cc2cc1-c1nc(-c2cccs2)no1 | inactive: 92% |
| CCN1CCN(C(=O)c2ccc3c(c2)N(Cc2ccc(F)cc2)C(=O)c2ccccc2S3(=O)=O)CC1 | inactive: 135% |
| Cc1cccc(OCc2nnc(-c3ccccc3)o2)c1 | inactive: 50% |
| CCn1c2c(c(=O)n3ncc(C(=O)Nc4ccc(F)cc4Cl)c13)CN(Cc1ccc(OC)cc1)CC2 | inactive: 55% |
| CCOC(=O)Cn1nc[n+]2[nH]c(C)cc(=O)c12 | inactive: 73% |
| Cc1c(NC(=O)c2ccc(Cl)cc2)cc(C(C)C)c(O)c1S(=O)(=O)c1ccccc1 | inactive: 57% |
| CCc1ccc(NC(=O)c2ccc3c(O)c(S(=O)(=O)c4ccccc4)c(=O)[nH]c3c2)cc1 | inactive: 89% |
| Cc1cc(=O)n(Cc2ccccc2Cl)c2c1c(C)nn2-c1ccccc1 | inactive: 100% |
| Cc1cc(NC(=O)CSc2nc3c([nH]c4ccccc43)c(=O)n2-c2ccc(Cl)cc2)no1 | inactive: 80% |
